# Experimental data taken from the supplement of paper PMC6657886.
# Tests used:
# Assay in all cases: Agar dilution on enriched GC agar; resistance determinants by microarray.
# [1] = compound: CC1(C)S[C@@H]2[C@H](NC(=O)Cc3ccccc3)C(=O)N2[C@H]1C(=O)O [benzylpenicillin]
# [2] = compound: CN(C)[C@@H]1C(O)=C(C(N)=O)C(=O)[C@@]2(O)C(O)=C3C(=O)c4c(O)cccc4[C@@](C)(O)[C@H]3C[C@@H]12 [tetracycline]
# [3] = compound: CC[C@H]1OC(=O)[C@H](C)[C@@H](O[C@H]2C[C@@](C)(OC)[C@@H](O)[C@H](C)O2)[C@H](C)[C@@H](O[C@@H]2O[C@H](C)C[C@H](N(C)C)[C@H]2O)[C@](C)(O)C[C@@H](C)CN(C)[C@H](C)[C@@H](O)[C@]1(C)O [azithromycin]
# [4] = compound: CO/N=C(\C(=O)N[C@@H]1C(=O)N2C(C(=O)O)=C(CSc3nc(=O)c(O)nn3C)CS[C@H]12)c1csc(N)n1 [ceftriaxone]
# [5] = compound: CN[C@@H]1[C@H](O)[C@H](NC)[C@H]2O[C@@]3(O)C(=O)C[C@@H](C)O[C@H]3O[C@@H]2[C@H]1O [spectinomycin]
test system,measurement,setting,value
"Neisseria gonorrhoeae isolate 153 (blaTEM plasmid: yes, gyrA: Phe91, Asn 95, mtrR promoter: wild type, parC: Asn87, Lys91, penA: ins345Asp, ponA: wild type, porB: wild type, rpsJ: Met57, tetM plasmid: yes)",MIC,[1],≥ 32 µg/mL
same,MIC,[2],64 µg/mL
same,MIC,[3],0.06 µg/mL
same,MIC,[4],0.015 µg/mL
same,MIC,[5],16 µg/mL
"Neisseria gonorrhoeae isolate 233 (blaTEM plasmid: no, gyrA: wild type, mtrR promoter: wild type, parC: wild type, penA: ins345Asp, ponA: wild type, porB: wild type, rpsJ: wild type, tetM plasmid: no)",MIC,[1],0.06 µg/mL
same,MIC,[2],0.25 µg/mL
same,MIC,[3],0.12 µg/mL
same,MIC,[4],0.008 µg/mL
same,MIC,[5],16 µg/mL
"Neisseria gonorrhoeae isolate 5 (blaTEM plasmid: no, gyrA: wild type, mtrR promoter: wild type, parC: wild type, penA: ins345Asp, ponA: wild type, porB: wild type, rpsJ: wild type, tetM plasmid: no)",MIC,[1],0.06 µg/mL
same,MIC,[2],0.5 µg/mL
same,MIC,[3],0.015 µg/mL
same,MIC,[4],≤ 0.002 µg/mL
same,MIC,[5],32 µg/mL
"Neisseria gonorrhoeae isolate 79 (blaTEM plasmid: no, gyrA: wild type, mtrR promoter: -35delA, parC: wild type, penA: ins345Asp, ponA: wild type, porB: wild type, rpsJ: wild type, tetM plasmid: no)",MIC,[1],≤ 0.015 µg/mL
same,MIC,[2],0.25 µg/mL
same,MIC,[3],0.12 µg/mL
same,MIC,[4],≤ 0.002 µg/mL
same,MIC,[5],32 µg/mL
"Neisseria gonorrhoeae isolate 400 (blaTEM plasmid: no, gyrA: Phe91, Asn95, mtrR promoter: wild type, parC: Arg87, Glu91, penA: ins345Asp, ponA: Pro421, porB: Asp120, Gly121, rpsJ: Met57, tetM plasmid: no)",MIC,[1],0.5 µg/mL
same,MIC,[2],1 µg/mL
same,MIC,[3],0.06 µg/mL
same,MIC,[4],0.008 µg/mL
same,MIC,[5],32 µg/mL
"Neisseria gonorrhoeae isolate 157 (blaTEM plasmid: no, gyrA: Phe91, Gly95, mtrR promoter: -35delA, parC: Arg87, Glu91, penA: ins345Asp, ponA: Pro421, porB: Asn120, Asp121, rpsJ: Met57, tetM plasmid: no)",MIC,[1],0.25 µg/mL
same,MIC,[2],0.25 µg/mL
same,MIC,[3],0.03 µg/mL
same,MIC,[4],0.004 µg/mL
same,MIC,[5],32 µg/mL
"Neisseria gonorrhoeae isolate 449 (blaTEM plasmid: no, gyrA: wild type, mtrR promoter: wild type, parC: wild type, penA: ins345Asp, ponA: wild type, porB: wild type, rpsJ: wild type, tetM plasmid: no)",MIC,[1],0.06 µg/mL
same,MIC,[2],0.06 µg/mL
same,MIC,[3],0.03 µg/mL
same,MIC,[4],0.004 µg/mL
same,MIC,[5],4 µg/mL
"Neisseria gonorrhoeae isolate 499 (blaTEM plasmid: no, gyrA: wild type, mtrR promoter: wild type, parC: wild type, penA: wild type, ponA: wild type, porB: wild type, rpsJ: wild type, tetM plasmid: no)",MIC,[1],0.12 µg/mL
same,MIC,[2],0.06 µg/mL
same,MIC,[3],0.12 µg/mL
same,MIC,[4],≤ 0.002 µg/mL
same,MIC,[5],16 µg/mL
"Neisseria gonorrhoeae isolate 507 (blaTEM plasmid: yes, gyrA: Phe91, Ala95, mtrR promoter: wild type, parC: Asn87, Gly91, penA: ins345Asp, ponA: Pro421, porB: Lys 120, Gly121, rpsJ: Met57, tetM plasmid: yes)",MIC,[1],16 µg/mL
same,MIC,[2],32 µg/mL
same,MIC,[3],0.25 µg/mL
same,MIC,[4],0.03 µg/mL
same,MIC,[5],32 µg/mL
"Neisseria gonorrhoeae isolate 415 (blaTEM plasmid: no, gyrA: wild type, mtrR promoter: wild type, parC: wild type, penA: wild type, ponA: wild type, porB: wild type, rpsJ: wild type, tetM plasmid: no)",MIC,[1],≤ 0.015 µg/mL
same,MIC,[2],0.25 µg/mL
same,MIC,[3],0.12 µg/mL
same,MIC,[4],≤ 0.002 µg/mL
same,MIC,[5],32 µg/mL
"Neisseria gonorrhoeae isolate 275 (blaTEM plasmid: no, gyrA: wild type, mtrR promoter: wild type, parC: wild type, penA: wild type, ponA: wild type, porB: wild type, rpsJ: wild type, tetM plasmid: yes)",MIC,[1],≤ 0.015 µg/mL
same,MIC,[2],32 µg/mL
same,MIC,[3],0.06 µg/mL
same,MIC,[4],≤ 0.002 µg/mL
same,MIC,[5],16 µg/mL
"Neisseria gonorrhoeae isolate 335 (blaTEM plasmid: no, gyrA: Phe91, Gly95, mtrR promoter: wild type, parC: Arg87, Glu91, penA: ins345Asp, ponA: Pro421, porB: wild type, rpsJ: Met57, tetM plasmid: no)",MIC,[1],0.25 µg/mL
same,MIC,[2],0.5 µg/mL
same,MIC,[3],0.008 µg/mL
same,MIC,[4],≤ 0.002 µg/mL
same,MIC,[5],8 µg/mL
"Neisseria gonorrhoeae isolate 159 (blaTEM plasmid: yes, gyrA: Phe91, Asp95, mtrR promoter: wild type, parC: Asn 87, Glu91, penA: ins345Asp, ponA: Pro421, porB: Lys 120, Gly121, rpsJ: Met57, tetM plasmid: no)",MIC,[1],8 µg/mL
same,MIC,[2],0.25 µg/mL
same,MIC,[3],0.03 µg/mL
same,MIC,[4],≤ 0.002 µg/mL
same,MIC,[5],8 µg/mL
"Neisseria gonorrhoeae isolate 119 (blaTEM plasmid: no, gyrA: wild type, mtrR promoter: wild type, parC: wild type, penA: wild type, ponA: wild type, porB: wild type, rpsJ: wild type, tetM plasmid: no)",MIC,[1],0.03 µg/mL
same,MIC,[2],0.25 µg/mL
same,MIC,[3],0.03 µg/mL
same,MIC,[4],≤ 0.002 µg/mL
same,MIC,[5],64 µg/mL
"Neisseria gonorrhoeae isolate 341 (blaTEM plasmid: no, gyrA: wild type, mtrR promoter: wild type, parC: wild type, penA: ins345Asp, ponA: Pro421, porB: wild type, rpsJ: wild type, tetM plasmid: no)",MIC,[1],0.03 µg/mL
same,MIC,[2],0.12 µg/mL
same,MIC,[3],0.06 µg/mL
same,MIC,[4],≤ 0.002 µg/mL
same,MIC,[5],8 µg/mL
"Neisseria gonorrhoeae isolate 309 (blaTEM plasmid: no, gyrA: wild type, mtrR promoter: wild type, parC: wild type, penA: ins345Asp, ponA: wild type, porB: wild type, rpsJ: wild type, tetM plasmid: no)",MIC,[1],0.06 µg/mL
same,MIC,[2],0.12 µg/mL
same,MIC,[3],0.06 µg/mL
same,MIC,[4],≤ 0.002 µg/mL
same,MIC,[5],16 µg/mL
"Neisseria gonorrhoeae isolate 344 (blaTEM plasmid: no, gyrA: wild type, mtrR promoter: wild type, parC: wild type, penA: ins345Asp, ponA: wild type, porB: wild type, rpsJ: wild type, tetM plasmid: no)",MIC,[1],0.06 µg/mL
same,MIC,[2],0.25 µg/mL
same,MIC,[3],0.12 µg/mL
same,MIC,[4],0.004 µg/mL
same,MIC,[5],32 µg/mL
"Neisseria gonorrhoeae isolate 385 (blaTEM plasmid: yes, gyrA: Phe91, Asp95, mtrR promoter: wild type, parC: Arg87, Lys91, penA: ins345Asp, ponA: Pro421, porB: wild type, rpsJ: Met57, tetM plasmid: yes)",MIC,[1],16 µg/mL
same,MIC,[2],32 µg/mL
same,MIC,[3],0.12 µg/mL
same,MIC,[4],≤ 0.002 µg/mL
same,MIC,[5],32 µg/mL
"Neisseria gonorrhoeae isolate 347 (blaTEM plasmid: no, gyrA: Phe91, Gly95, mtrR promoter: -35delA, parC: Ser87, Gly91, penA: ins345Asp, ponA: Pro421, porB: wild type, rpsJ: Met57, tetM plasmid: no)",MIC,[1],0.12 µg/mL
same,MIC,[2],1 µg/mL
same,MIC,[3],0.12 µg/mL
same,MIC,[4],0.008 µg/mL
same,MIC,[5],16 µg/mL
"Neisseria gonorrhoeae isolate 51 (blaTEM plasmid: no, gyrA: Phe91, Gly95, mtrR promoter: wild type, parC: Arg87, Glu91, penA: ins345Asp, ponA: Pro421, porB: wild type, rpsJ: Met57, tetM plasmid: no)",MIC,[1],0.5 µg/mL
same,MIC,[2],0.5 µg/mL
same,MIC,[3],0.008 µg/mL
same,MIC,[4],0.008 µg/mL
same,MIC,[5],32 µg/mL
"Neisseria gonorrhoeae isolate 314 (blaTEM plasmid: no, gyrA: wild type, mtrR promoter: wild type, parC: wild type, penA: ins345Asp, ponA: wild type, porB: wild type, rpsJ: wild type, tetM plasmid: no)",MIC,[1],0.03 µg/mL
same,MIC,[2],0.25 µg/mL
same,MIC,[3],0.008 µg/mL
same,MIC,[4],0.004 µg/mL
same,MIC,[5],32 µg/mL
"Neisseria gonorrhoeae isolate 127 (blaTEM plasmid: no, gyrA: wild type, mtrR promoter: wild type, parC: wild type, penA: ins345Asp, ponA: wild type, porB: wild type, rpsJ: wild type, tetM plasmid: no)",MIC,[1],0.12 µg/mL
same,MIC,[2],0.25 µg/mL
same,MIC,[3],0.015 µg/mL
same,MIC,[4],0.008 µg/mL
same,MIC,[5],32 µg/mL
"Neisseria gonorrhoeae isolate 496 (blaTEM plasmid: no, gyrA: wild type, mtrR promoter: wild type, parC: wild type, penA: ins345Asp, ponA: wild type, porB: wild type, rpsJ: wild type, tetM plasmid: no)",MIC,[1],0.06 µg/mL
same,MIC,[2],0.06 µg/mL
same,MIC,[3],0.12 µg/mL
same,MIC,[4],≤ 0.002 µg/mL
same,MIC,[5],16 µg/mL
"Neisseria gonorrhoeae isolate 436 (blaTEM plasmid: no, gyrA: Phe91, Asn95, mtrR promoter: -35delA, parC: Arg87, Glu91, penA: ins345Asp, ponA: Pro421, porB: Lys 120, Asn 121, rpsJ: Met57, tetM plasmid: no)",MIC,[1],1 µg/mL
same,MIC,[2],1 µg/mL
same,MIC,[3],0.25 µg/mL
same,MIC,[4],0.004 µg/mL
same,MIC,[5],16 µg/mL
"Neisseria gonorrhoeae isolate 183 (blaTEM plasmid: no, gyrA: Phe91, Gly95, mtrR promoter: -35delA, parC: Arg87, Glu91, penA: ins345Asp, ponA: Pro421, porB: wild type, rpsJ: Met57, tetM plasmid: no)",MIC,[1],1 µg/mL
same,MIC,[2],1 µg/mL
same,MIC,[3],0.03 µg/mL
same,MIC,[4],0.008 µg/mL
same,MIC,[5],32 µg/mL

# MIC of clinical N. gonorrhoeae isolates (2015-2017) by agar dilution on GC agar with 1% IsoVitaleX (ranges not stated); higher = less susceptible. No active / inactive call per row; the paper counts benzylpenicillin above 1 and ceftriaxone above 0.125 mg/L as resistant (EUCAST). The method is stated for benzylpenicillin and ceftriaxone and assumed for the other drugs. '<=' is inferred from pile-ups at the end values. Isolates are numbered anew.
